Here are results for 167 variants from the RNAGym collection of RNA variant scans (doi:10.7554/elife.90254).

To fix the notation:
B1: OR4K15 (parent)
chain: GUUAACGGUCAUAGGCCAUGGAAACUAGGAGCACCAUUUCGCUGCCAGUGAAGAAAUGAACAAAGAAAAUCUGGGCCAGGCAGGCAUCAAAAGAAAUAGUCUUGCGCUCAACCAGAAAGUCUGUAAUCAUUUUAAGGGUA

The source gives no read counts; variants with many changes may rest on few reads.

The variants in this data set derive from B1. In words: self-cleavage, relative activity (ratio to wild type); higher = more cleavage; in vitro, sequencing; the parent is a self-cleaving ribozyme.
On to U39A A69G U70C, for which the self-cleavage worked out at 0.73. On to U39C A89U U139A, for which the self-cleavage worked out at 1.6. For U43A A51G A68G, the self-cleavage was found to be 0.86. The result for U39C A63G G74A A78G reads 0.21.

For the variant U43A A66G U103C, the self-cleavage worked out at 1.56. As to U39G A52G A91G, the self-cleavage came to 0.89. With U39C A98G G99C A116G A126G, the self-cleavage turned out to be 0.54.

For the variant U39C A56G A94U, the self-cleavage was found to be 1.67. The result for U38G U49C A94U reads 1.23; that for U39C A68U A140G, 0.98; that for U38C U49C U122C, 1.34. To U39A C76A G84U belongs 0.03; to U38G A117G A126U U133G, 2.03. Take C40U A62G A135U: the self-cleavage worked out at 1.94. For the variant U39C A51G A67G A68C A94U, the self-cleavage came out at 1.11.

As to C40U A86G U87C, the self-cleavage turned out to be 0.55. The result for U38C U87A U139C reads 1.99; that for U38C U72C A92G, 0.02; that for C42U U108C A117G, 0.01. On to U39C A54G A118G, for which the self-cleavage was 0.83. As to U39G A60G A78G U122C, the self-cleavage was 0.12. As for U39C A47G A60G A67G C77U C109A, the self-cleavage is 0.08.

U39C A59G A68U A90G: the self-cleavage came to 1.36. As for U39C A60G A78U, the self-cleavage is 0.18. With U39C A56G A60G A140G, the self-cleavage came out at 1.4. With U39C A66U A117G, the self-cleavage was found to be 1.72. To U43C A51G A56G U120C belongs 0.73; to U39C U102A U130C, 0.7; to U43A U49C U100C, 1.94.

With U43A A89U U103C G115A U132C, the self-cleavage stood at 0.04. On to U43A A52G A78G U87A, for which the self-cleavage amounted to 0.31. With U39C U122C U131C, the self-cleavage was 0.48. The result for U43A A51G A66U reads 1.61. For the variant U39A A55U U132C, the self-cleavage is 2.45. With U39A A51G A54G A92G, the self-cleavage was 1.87. As for U39C A68U U70A A117U, the self-cleavage came to 0.85. With U43A A55G A62G U122C, the self-cleavage is 1.71.

Consider C40U A68G A92G, for which the self-cleavage turned out to be 1.45.

Take U39A U57G A60C U103C: the self-cleavage amounted to 1.45. Take U43A U49A U70C: the self-cleavage worked out at 1.09. The result for G41C A52G A68C U108C reads 0.05; that for U39A U43A A54U A67G A114G U127C, 0.15; that for C40A A69U U70C A116G, 2.01.

Regarding U39C A55G U70C A82G U130C, the self-cleavage is 0.26. As to U43A A56G A78G C85U, the self-cleavage was 0. As for U39A A69G A111U A126U, the self-cleavage turned out to be 0.03.

In the case of U39A A64U U130C, the self-cleavage was determined as 1.8. The result for U39A U87C A129U reads 0.7; that for U38G A51G A68G U124C, 0.8. With U43A A54C U100C, the self-cleavage worked out at 2.24. Consider U43A A89U A92G A135U, for which the self-cleavage turned out to be 1.59. The result for U43A A66U A78U reads 0.51; that for U39C A60G A91G, 0.62; that for U43A A67G A78U U108C U122A, 0.02. On to U43A U57A U87A A98U U102C U108A U120C, for which the self-cleavage amounted to 0.

In the case of U43A A55G U139C, the self-cleavage came out at 1.34. Regarding U39C A92U A140G, the self-cleavage was 2.04. For the variant U39A A89U U120C, the self-cleavage was 1.28. As for U43A A69U A90G A118G, the self-cleavage was determined as 0.57. To U39C A52G A66G U70C G79A belongs 0.33; to U39C A63G U70C, 1.04. In the case of U43A A52G A86G, the self-cleavage amounted to 1.46. Turning to U39A A89G A95G, the self-cleavage came to 2.68. Regarding C42G U57C A110G, the self-cleavage came out at 0.09. U39C A52G U103C: the self-cleavage came to 0.65.

In the case of G41A A110U A140G, the self-cleavage was determined as 0.58. The result for U39C C45G A56G A59G A129C reads 0.98; that for U39A A96G U139C, 1.9; that for U38C U87A A125G, 0.53. In the case of U39C A52G A90G U100C U122C, the self-cleavage was 1.39. As for U39A A59G A140U, the self-cleavage worked out at 2. For the variant G41A U49G A64G A90G, the self-cleavage is 1.32. Turning to U39C A62U A68G A98G, the self-cleavage worked out at 0.4.

Regarding C40A U43C A52G A82G U108C A110G U120C, the self-cleavage was 0.01. Consider U39C A51U A55G G137U, for which the self-cleavage was 1.46.

Turning to U39C U132C A140G, the self-cleavage was found to be 1.5. As for U39C A86G U100C, the self-cleavage came to 1.95. With U39C A52G A55G, the self-cleavage is 1.

Turning to U43A A91G U102C U132C, the self-cleavage turned out to be 2.02. Turning to U39A A47G A64G U127C, the self-cleavage turned out to be 0.56. As for U39C A67G A91G, the self-cleavage amounted to 1.22. In the case of U43A A52G A78G, the self-cleavage was 0.23. With U39A C61U A68G U87C A94U, the self-cleavage is 1.5. Turning to U43A A59G U70C A90G U100C U122A, the self-cleavage stood at 1.28. On to U39C A52U A95G, for which the self-cleavage amounted to 1.93. On to U43A A52G A95G, for which the self-cleavage turned out to be 1.87. Take G41A U49C A60G U131C: the self-cleavage turned out to be 0.83. For C40U U43A U70C A95G G115U, the self-cleavage was determined as 0.08. On to U38C U87C A90G, for which the self-cleavage came out at 0.37.

As to G41A U43C A54G, the self-cleavage is 2.37. Regarding U38C U87C U102C, the self-cleavage was 2.17. With U43A A126G U127C, the self-cleavage was 1.22. As for G41A A116G A135G, the self-cleavage was found to be 0.32. To U39A A51G A95G belongs 1.88; to U43C A51G A63U A116G U120C, 0.32. In the case of U39C U43C A68C A86U, the self-cleavage is 1.16. With U39A A67G A140G, the self-cleavage came to 1.68. With U39C U57A A67G A68G U139G, the self-cleavage turned out to be 0.34. Regarding U39A A66G A68U G99A U124C, the self-cleavage was 0.54. In the case of U39C A47G A82C U120C G136A, the self-cleavage stood at 0.04. Turning to U39A A52G A111G, the self-cleavage worked out at 0.02. The result for C40U A62U A67G A116G A118U reads 0.11; that for U43C A47G A52G A96G, 0.53; that for U39C A91G G115U, 0.13. U39A A94U U102A U130C: the self-cleavage came to 0.39.

Consider U38G A52G A59G, for which the self-cleavage came out at 0.7. For the variant U39A A96G A118G, the self-cleavage turned out to be 0.99. On to C42U U43C A52G A98U A129G, for which the self-cleavage stood at 0.98. For the variant U43A A51G A91G A140G, the self-cleavage turned out to be 0.93. The result for U39A U49C A92G reads 0.99; that for C42U U72C A111G, 0.02; that for U39C A86U A92G, 0.62. Regarding U39C A52G A116G, the self-cleavage is 0.6. On to U39A A69G U87C U130C, for which the self-cleavage was 1.55. For the variant G41A A60G A118G, the self-cleavage is 0.86.

Regarding U39C A64G U72C A125G, the self-cleavage amounted to 0.09. As for C42U A52G U70A A92G U127C, the self-cleavage was found to be 0.22.

Consider U38C U103C A125G, for which the self-cleavage worked out at 0.2. The result for C40U G53C G93A reads 1.61; that for U39A A56G U100G U102A, 0.43.

For the variant G41A U43C A92U, the self-cleavage was determined as 0.63. As for U39C U108A A110G A114U A118G, the self-cleavage was 0.

On to U39C A51G A52G A66G, for which the self-cleavage came to 1.45. As to U39C U57A C101A, the self-cleavage came out at 0.14.

In the case of U43A G53U A68G A82U U87C U108A, the self-cleavage turned out to be 0.02. To U39C A69C A94G G136A belongs 1.63. Take U39A U70C U102C: the self-cleavage was determined as 1.25.

For the variant G41U U100C G123A, the self-cleavage is 2.43. Consider U39C C40G G65A A82U A94G U124A, for which the self-cleavage came to 0.11.

For the variant U43C A51G A62U U130C, the self-cleavage came out at 0.41. With U39C A51C A55G, the self-cleavage amounted to 0.7. With U43C A47U A52G A69U U100C, the self-cleavage amounted to 1.33. With U39C A66G A86G U103G, the self-cleavage came out at 0.01. To U39C A51G A125G belongs 0.72; to U38C U72C A82U, 0.18; to U39C A96U U122A, 1.2. To U39A U49C U139A belongs 0.63; to C42U U49C A54G, 1.26; to U39C A52C A55G A60G U97G G115A, 0.01. With U39A A55G A114G, the self-cleavage was found to be 0.24. For U39A A52G U70C U108C, the self-cleavage was 0. Consider G41A G50A A62G U124A, for which the self-cleavage stood at 0.96.

Turning to C40U A51C U57C G80A A110G, the self-cleavage worked out at 0.01. To U39A A51U A111G U130C belongs 0.01; to G41A U87C U122A, 0.65; to U38G U102C U127C U132C, 1.28. Turning to U39A A86G U97C U108C, the self-cleavage is 0.02. To C40U A56C A110G belongs 0.06; to U39C A62G A117G U127C, 1.33. The result for U39C A56G A110G reads 0.22; that for U43A A66U A86G U131C A140U, 0.78; that for U38C U102G U130C A140G, 0.32. To U38C U49A A54G A86G belongs 1.19. With U38C U70C A114U, the self-cleavage was determined as 0.02.

As to U43A A62G A66G A118G, the self-cleavage was 0.69. Turning to U38C U43C U131C, the self-cleavage amounted to 1.31. With U39C A55G U127A, the self-cleavage was found to be 2.69. Consider U43A G84C A86U A96G, for which the self-cleavage was 0.93. Take C40A A52G A95G U139C: the self-cleavage was found to be 1.82. Regarding U38C U102A U108C, the self-cleavage came to 0.01. Turning to G41A A56G A95G, the self-cleavage was 2.04. As to U39A A47U A56G A134G, the self-cleavage was determined as 1.39. Consider U39A A82G C128U, for which the self-cleavage was 0.27.

Turning to U43C A47G A82U, the self-cleavage was determined as 0.17. The result for U43A G79U A86G G137A reads 0.06; that for U39C A91G A135G, 1.53. With U38C U49C U57C A59U A66G, the self-cleavage was 1.81.
